Results published in the supplement of paper PMC12217912.
This is one part of the list. Sequences were assembled here from the parent chain. Values near 0.05 are background.

B1: TEV protease; numbered along this chain (parent)
chain: MGESLFKGPRDYNPISSSICHLTNESDGHTTSLYGIGFGPFIITNKHLFRRNNGTLVVQSLHGVFKVKDTTTLQQHLVDGRDMIIIRMPKDFPPFPQKLKFREPQREERICLVTTNFQTKSMSSMVSDTSCTFPSGDGIFWKHWIQTKDGQCGSPLVSTRDGFIVGIHSASNFTNTNNYFTSVPKNFMELLTNQEAQQWVSGWRLNADSVLWGGHKVFMVKPEEPFQPVKEATQL

Variants of: B1
Assay: raw area under fraction-flipped curve 0-4 h after induction (AUC4h, not background-subtracted), DNA-recorder readout of cleavage of the substrate (dimensionless); higher = more cleavage of the substrate by the protease variant
Conditions: temperature: 34 °C; time window: 0-4 h after rhamnose induction
Protocol: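 In vivo DNA recorder in E. coli TOP10(DE3) ΔrhaA at 34 °C. Each TEVp single-site mutant (parent TEVp 0) is paired with a single-site variant of the 7-mer TEVs (canonical ENLYFQ|S). The substrate sits between flexible linkers in a Bxb1-sfGFP-TEVs-SsrA fusion, so cleavage stabilises Bxb1 and speeds flipping of a recombination array, read by NGS. The value is the raw area under the fraction-flipped curve over 0-4 h after rhamnose induction (AUC4h), with ≥20 reads per time point. It is not background-subtracted; inactive controls average about 0.047.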
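Also: Bxb1 expression induced with 0.2% (w/v) L-rhamnose at OD600 near 0.5, cultures sampled hourly, flipped fraction per protease–substrate barcode pair counted by paired-end Illumina sequencing.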

| Variant | area with substrate ENLYAQS | area with substrate ENLYDQS | area with substrate ENLYEQS | area with substrate ENLYHQS | area with substrate ENLYIQS | area with substrate ENLYKQS | area with substrate ENLYMQS | area with substrate ENLYNQS | area with substrate ENLYQQS | area with substrate ENLYSQS | area with substrate ENLYTQS | area with substrate ENLYVQS | area with substrate ENLYWQS | area with substrate ENLYYQS | area with substrate ENLYGQS | area with substrate ENLYLQS | area with substrate ENLYPQS | area with substrate ENLYRQS | area with substrate ENLYCQS |
| --- | --- | --- | --- | --- | --- | --- | --- | --- | --- | --- | --- | --- | --- | --- | --- | --- | --- | --- | --- |
| F41D | 0.0576 | 0.0497 | 0.0492 | 0.0528 | 0.103 | 0.0393 | 0.0543 | 0.0443 | 0.0677 | 0.0585 | 0.0535 | 0.0896 | 0.0601 | 0.0593 |  |  |  |  |  |
| N24P | 0.0583 | 0.0498 | 0.0678 | 0.0564 | 0.0508 | 0.0473 | 0.0359 | 0.0569 | 0.0717 | 0.0535 |  | 0.0785 | 0.0582 | 0.0463 | 0.058 | 0.0471 | 0.0742 | 0.0468 |  |
| N24F | 0.0577 | 0.068 | 0.0621 | 0.0699 | 0.109 | 0.0681 | 0.0581 | 0.0607 | 0.0772 | 0.0731 |  | 0.0973 |  | 0.0658 | 0.0663 |  | 0.0692 | 0.071 | 0.0767 |
| N24V | 0.0636 | 0.0643 | 0.0694 | 0.0587 | 0.0769 | 0.0743 | 0.0732 | 0.0588 | 0.0656 | 0.0622 | 0.0722 | 0.0911 | 0.0641 | 0.067 | 0.0691 | 0.0561 | 0.0652 | 0.0776 | 0.0905 |
| G35R | 0.0528 |  | 0.0441 | 0.0333 | 0.0522 |  |  | 0.0444 | 0.032 |  | 0.047 |  |  |  | 0.0582 |  |  |  |  |
| R51I | 0.0654 | 0.0228 | 0.0565 | 0.0753 | 0.0939 | 0.0691 | 0.0724 | 0.0564 | 0.065 |  |  |  | 0.0694 |  | 0.0548 |  | 0.0469 | 0.0632 |  |
| T23W | 0.0537 | 0.0631 | 0.0729 | 0.0666 | 0.0837 | 0.0681 | 0.0707 | 0.0655 | 0.0638 | 0.0605 | 0.0722 | 0.0994 | 0.0743 | 0.0708 | 0.0594 | 0.0714 | 0.0683 | 0.0599 | 0.0033 |
| T23G | 0.0666 | 0.0792 | 0.0606 | 0.063 | 0.0958 | 0.0436 | 0.0694 | 0.0581 | 0.055 | 0.0621 |  | 0.0731 | 0.0623 | 0.0584 | 0.0491 | 0.063 | 0.0564 | 0.0523 |  |
| P40M | 0.0777 | 0.0708 | 0.0619 | 0.0679 |  |  | 0.0429 | 0.0618 | 0.0429 | 0.0905 | 0.0898 | 0.042 | 0.0607 | 0.0742 |  |  | 0.0676 | 0.0583 |  |
| H21E | 0.0816 | 0.0696 | 0.0434 | 0.0645 | 0.0906 | 0.0461 | 0.0744 | 0.0595 | 0.0591 | 0.0599 | 0.064 | 0.0672 | 0.0917 | 0.0651 | 0.0673 | 0.0716 | 0.0634 | 0.0688 | 0.0938 |
| H21I | 0.0643 | 0.0437 | 0.0642 | 0.0618 | 0.0664 | 0.0383 | 0.0652 | 0.0637 | 0.059 | 0.0701 | 0.08 | 0.116 |  | 0.0681 | 0.0564 |  | 0.0638 | 0.0626 | 0.0786 |
| H21T | 0.0635 | 0.0656 | 0.0655 | 0.0632 | 0.104 | 0.0604 | 0.0561 | 0.0669 | 0.0535 | 0.0756 | 0.0614 | 0.11 | 0.0683 | 0.0616 | 0.0615 |  | 0.068 | 0.0662 | 0.0838 |
| H21F | 0.0667 | 0.059 | 0.107 | 0.0723 | 0.0979 | 0.0482 | 0.0709 | 0.0607 |  |  | 0.0955 | 0.133 | 0.083 | 0.0534 | 0.07 |  | 0.065 | 0.0645 |  |
| I42S | 0.0311 | 0.046 | 0.0519 | 0.0387 |  | 0.0421 | 0.0555 | 0.0484 | 0.0462 | 0.0479 | 0.057 | 0.0492 | 0.045 | 0.0362 | 0.0401 |  | 0.0267 | 0.0542 | 0.0297 |
| T44R | 0.0641 |  | 0.0518 | 0.041 | 0.0435 | 0.0233 | 0.048 | 0.0454 | 0.0391 | 0.0436 |  | 0.034 | 0.0525 | 0.0631 | 0.0414 |  | 0.0562 | 0.0428 |  |
| T55V | 0.0831 | 0.0636 | 0.0409 | 0.0713 | 0.129 | 0.0358 |  | 0.0676 | 0.0528 | 0.0718 | 0.0843 | 0.119 | 0.0776 | 0.06 | 0.0606 | 0.0922 | 0.025 | 0.0676 |  |
| V57R | 0.074 | 0.0433 | 0.0666 | 0.0766 |  |  |  | 0.078 | 0.053 |  | 0.0665 | 0.113 | 0.0762 | 0.0666 | 0.0337 |  | 0.0611 | 0.0549 |  |
| L5D | 0.0199 |  | 0.0729 |  |  | 0.071 | 0.0988 | 0.0598 | 0.0753 | 0.0758 |  |  | 0.0651 | 0.0632 | 0.0684 |  | 0.0662 | 0.0524 |  |
| L22G | 0.0518 | 0.0411 |  |  |  |  | 0.0292 |  |  | 0.0379 |  | 0.0426 | 0.0391 |  | 0.0778 | 0.0333 | 0.0097 |  |  |
| N13Q | 0.0683 | 0.0655 | 0.0665 | 0.0691 | 0.124 | 0.073 | 0.0864 | 0.0685 | 0.0606 | 0.0786 | 0.0789 | 0.112 | 0.084 | 0.0539 | 0.068 | 0.0783 | 0.0691 | 0.0623 |  |
| E25C | 0.0845 | 0.0478 | 0.07 |  | 0.123 | 0.0685 | 0.0923 | 0.0776 | 0.0674 | 0.0637 | 0.0765 | 0.116 | 0.0828 | 0.0696 | 0.0706 | 0.11 | 0.0844 | 0.0544 | 0.112 |
| E25I | 0.067 | 0.0435 |  | 0.067 | 0.108 | 0.0526 | 0.0698 | 0.069 | 0.0649 | 0.0732 | 0.086 | 0.116 |  |  |  |  | 0.0715 | 0.0485 |  |
| D11E | 0.0583 | 0.0649 | 0.0661 | 0.0599 | 0.125 | 0.0613 | 0.0601 | 0.048 |  |  | 0.0755 | 0.11 | 0.111 | 0.0655 | 0.0781 | 0.0801 | 0.0686 | 0.0497 | 0.0776 |
